# Assay results as given in PMC12820563, “FoxP3 forms a head-to-head dimer in vivo and stabilizes its multimerization on adjacent microsatellites”.
# The other results are listed elsewhere or left out.
# Target: T1, MBP-FoxP1dN (Mus musculus, UniProt P58462 326-579)
# T1 sequence: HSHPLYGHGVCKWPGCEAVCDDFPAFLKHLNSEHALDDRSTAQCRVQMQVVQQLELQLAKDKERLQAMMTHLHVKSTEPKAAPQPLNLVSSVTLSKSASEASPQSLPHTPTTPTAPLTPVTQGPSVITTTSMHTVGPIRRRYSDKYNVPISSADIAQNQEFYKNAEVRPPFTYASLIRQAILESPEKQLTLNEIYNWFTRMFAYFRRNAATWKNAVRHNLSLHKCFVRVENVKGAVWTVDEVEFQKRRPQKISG
# Assay: PD-seq (MBP pull-down with sequencing); 20 mM Tris-HCl pH 7.5, 100 mM NaCl, 1.5 mM MgCl2, 0.4 uM protein, 0.1 uM dsDNA library, 30 min, room temperature, amylose pull-down; high values mean tight binding
# Conditions: protein: recombinant; tags: His6-MBP; chain copies: 2; dsDNA, one strand shown
# Procedure, shortened: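 A fragment of mouse FoxP3 or FoxP1 without its N-terminus, carrying a His6-MBP tag and produced in E. coli, was combined at 0.4 µM with a 0.1 µM degenerate double-stranded DNA library filled in with Klenow. The mixture sat for 30 min at room temperature in Tris pH 7.5 buffer containing NaCl and MgCl2. Protein–DNA complexes were captured on amylose resin, washed three times, and the DNA was freed with proteinase K, barcoded by PCR and sequenced on Illumina. Binding is expressed as reads-per-million enrichment of pull-down over input, with replicates pooled.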
row,Sequence,binding signal
1,GATGATTGTTCTCCCAGCTGATGAATTTGCATATTCGAGTAAACAAATTTTCCTAATCTTTCTGTTCAAGCGCCATCTAC,1.17 RPM ratio (pull-down/input)
2,GATGATTGTTCTCCCAGCTGATGAATTGCTAACGTCGAGTAAACAAATTTTCCTAATCTTTCTGTTCAAGCGCCATCTAC,1.04 RPM ratio (pull-down/input)
3,GATGATTGTTCTCCCAGCTGATGAATTTAGCCGTTCGAGTAAACAAATTTTCCTAATCTTTCTGTTCAAGCGCCATCTAC,0.829 RPM ratio (pull-down/input)
4,GATGATTGTTCTCCCAGCTGATGAATTCGTGCATTCGAGTAAACAAATTTTCCTAATCTTTCTGTTCAAGCGCCATCTAC,1.2 RPM ratio (pull-down/input)
5,GATGATTGTTCTCCCAGCTGATGAATTTGTTCTCTCGAGTAAACAAATTTTCCTAATCTTTCTGTTCAAGCGCCATCTAC,1.09 RPM ratio (pull-down/input)
6,GATGATTGTTCTCCCAGCTGATGAATTAGGTCGATCGAGTAAACAAATTTTCCTAATCTTTCTGTTCAAGCGCCATCTAC,0.891 RPM ratio (pull-down/input)
7,GATGATTGTTCTCCCAGCTGATGAATTCGTCAGATCGAGTAAACAAATTTTCCTAATCTTTCTGTTCAAGCGCCATCTAC,0.899 RPM ratio (pull-down/input)
8,GATGATTGTTCTCCCAGCTGATGAATTCTCTATCTCGAGTAAACAAATTTTCCTAATCTTTCTGTTCAAGCGCCATCTAC,0.845 RPM ratio (pull-down/input)
9,GATGATTGTTCTCCCAGCTGATGAATTCGTGGGCTCGAGTAAACAAATTTTCCTAATCTTTCTGTTCAAGCGCCATCTAC,0.788 RPM ratio (pull-down/input)
10,GATGATTGTTCTCCCAGCTGATGAATTCCCTCCATCGAGTAAACAAATTTTCCTAATCTTTCTGTTCAAGCGCCATCTAC,0.855 RPM ratio (pull-down/input)
11,GATGATTGTTCTCCCAGCTGATGAATTAAAAATATCGAGTAAACAAATTTTCCTAATCTTTCTGTTCAAGCGCCATCTAC,1.35 RPM ratio (pull-down/input)
12,GATGATTGTTCTCCCAGCTGATGAATTTGGAACGTCGAGTAAACAAATTTTCCTAATCTTTCTGTTCAAGCGCCATCTAC,0.853 RPM ratio (pull-down/input)
13,GATGATTGTTCTCCCAGCTGATGAATTTTTGTGCTCGAGTAAACAAATTTTCCTAATCTTTCTGTTCAAGCGCCATCTAC,1.12 RPM ratio (pull-down/input)
14,GATGATTGTTCTCCCAGCTGATGAATTCAGGACTTCGAGTAAACAAATTTTCCTAATCTTTCTGTTCAAGCGCCATCTAC,0.799 RPM ratio (pull-down/input)
15,GATGATTGTTCTCCCAGCTGATGAATTTTGCACGTCGAGTAAACAAATTTTCCTAATCTTTCTGTTCAAGCGCCATCTAC,0.93 RPM ratio (pull-down/input)
16,GATGATTGTTCTCCCAGCTGATGAATTCACCGTATCGAGTAAACAAATTTTCCTAATCTTTCTGTTCAAGCGCCATCTAC,0.882 RPM ratio (pull-down/input)

row,Sequence,binding signal
1,GATGATTGTTCTCCCAGCTGATGAATTCTGGCAGTCGAGTAAACAAATTTTCCTAATCTTTCTGTTCAAGCGCCATCTAC,0.848 RPM ratio (pull-down/input)
2,GATGATTGTTCTCCCAGCTGATGAATTCCTACGTTCGAGTAAACAAATTTTCCTAATCTTTCTGTTCAAGCGCCATCTAC,0.874 RPM ratio (pull-down/input)
3,GATGATTGTTCTCCCAGCTGATGAATTGTTTTGCTCGAGTAAACAAATTTTCCTAATCTTTCTGTTCAAGCGCCATCTAC,1.95 RPM ratio (pull-down/input)
4,GATGATTGTTCTCCCAGCTGATGAATTGAAGCTCTCGAGTAAACAAATTTTCCTAATCTTTCTGTTCAAGCGCCATCTAC,0.797 RPM ratio (pull-down/input)
5,GATGATTGTTCTCCCAGCTGATGAATTGTATTAATCGAGTAAACAAATTTTCCTAATCTTTCTGTTCAAGCGCCATCTAC,1.24 RPM ratio (pull-down/input)
6,GATGATTGTTCTCCCAGCTGATGAATTGCCTCTTTCGAGTAAACAAATTTTCCTAATCTTTCTGTTCAAGCGCCATCTAC,1.15 RPM ratio (pull-down/input)
7,GATGATTGTTCTCCCAGCTGATGAATTTACTAGGTCGAGTAAACAAATTTTCCTAATCTTTCTGTTCAAGCGCCATCTAC,1.09 RPM ratio (pull-down/input)
8,GATGATTGTTCTCCCAGCTGATGAATTTTCCAGATCGAGTAAACAAATTTTCCTAATCTTTCTGTTCAAGCGCCATCTAC,0.885 RPM ratio (pull-down/input)
9,GATGATTGTTCTCCCAGCTGATGAATTCTATACGTCGAGTAAACAAATTTTCCTAATCTTTCTGTTCAAGCGCCATCTAC,0.962 RPM ratio (pull-down/input)
10,GATGATTGTTCTCCCAGCTGATGAATTACTTCAGTCGAGTAAACAAATTTTCCTAATCTTTCTGTTCAAGCGCCATCTAC,0.978 RPM ratio (pull-down/input)
11,GATGATTGTTCTCCCAGCTGATGAATTTTTGCAATCGAGTAAACAAATTTTCCTAATCTTTCTGTTCAAGCGCCATCTAC,1.26 RPM ratio (pull-down/input)
12,GATGATTGTTCTCCCAGCTGATGAATTTAGCTTGTCGAGTAAACAAATTTTCCTAATCTTTCTGTTCAAGCGCCATCTAC,0.967 RPM ratio (pull-down/input)
13,GATGATTGTTCTCCCAGCTGATGAATTCAGCAGCTCGAGTAAACAAATTTTCCTAATCTTTCTGTTCAAGCGCCATCTAC,0.764 RPM ratio (pull-down/input)
14,GATGATTGTTCTCCCAGCTGATGAATTACTAGTATCGAGTAAACAAATTTTCCTAATCTTTCTGTTCAAGCGCCATCTAC,1.27 RPM ratio (pull-down/input)
15,GATGATTGTTCTCCCAGCTGATGAATTGCGGTTCTCGAGTAAACAAATTTTCCTAATCTTTCTGTTCAAGCGCCATCTAC,0.916 RPM ratio (pull-down/input)
